Test results: PubChem BioAssay AID588342 (National Center for Advancing Translational Sciences (NCATS), 2011)
In all, about 360,000 compounds went through this assay and about 25,000 (6.9%) were called active. The shares of active, inactive and inconclusive entries below differ from those in the screen. The call rests on the fitted dose curve; in most records, active means well fitted inhibition curve with a large enough effect; inconclusive means small, poorly fitted or top-dose-only effect; inactive means flat fitted curve, though single readings scatter. Potencies of inconclusive entries are doubtful fits and often do not repeat.

Molecular target: Luciferin 4-monooxygenase (Photinus pyralis) (UniProt P08659)
UniProt P08659, sequence (P08659 whole entry, looked up): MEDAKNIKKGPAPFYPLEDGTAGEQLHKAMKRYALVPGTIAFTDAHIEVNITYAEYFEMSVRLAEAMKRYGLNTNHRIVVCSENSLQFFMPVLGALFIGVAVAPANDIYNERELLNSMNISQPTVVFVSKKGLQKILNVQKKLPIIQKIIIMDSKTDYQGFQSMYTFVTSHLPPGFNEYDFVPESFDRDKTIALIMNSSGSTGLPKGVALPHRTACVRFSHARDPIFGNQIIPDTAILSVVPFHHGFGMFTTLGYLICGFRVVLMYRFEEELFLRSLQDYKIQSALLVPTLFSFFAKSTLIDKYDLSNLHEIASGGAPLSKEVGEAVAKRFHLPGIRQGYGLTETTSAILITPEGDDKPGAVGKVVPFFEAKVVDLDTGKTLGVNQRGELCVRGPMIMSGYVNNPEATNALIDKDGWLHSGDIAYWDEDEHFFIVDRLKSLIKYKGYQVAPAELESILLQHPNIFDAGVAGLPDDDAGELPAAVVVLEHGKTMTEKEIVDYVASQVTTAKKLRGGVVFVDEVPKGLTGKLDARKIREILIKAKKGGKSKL
Test: qHTS profiling assay for firefly luciferase inhibitor/activator using purifed enzyme and Km concentrations of substrates (counterscreen for miR-21 project); further: nearly all actives have a fitted effect of over 55% in size;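 on activity change, negative = inhibition: plate controls were vehicle for no effect and reference inhibitor for full effect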
Details: purified FLuc, luminescence inhibition; series mostly up to 57.5 µM; activity change, negative = inhibition: at the top concentration
Outline: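 Purified P. pyralis luciferase (10nM final) with 10uM D-luciferin and 10uM ATP (Km levels) in 50mM Tris acetate pH 7.5, 10mM Mg acetate, 0.01% Tween-20, 0.05% BSA; qHTS 6-point titration, ~60 µM downward; luminescence read.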
Potency means the concentration at half of the fitted maximal effect; tags describe the fitted curve by direction and shape.

For N#CC1=C2SCN(Cc3ccco3)CN2C(=O)CC1c1cccc2ccccc12 (stereo unspecified), which Potency is on record?
The Potency was inconclusive: 23.9 µM [inhibitor, partial curve, poor fit].

With Cc1cccc2[nH]c3c(N4CCN(C(=O)c5ccco5)CC4)ncnc3c12 as the compound, how does the Potency read?
Its Potency is inconclusive: 37.9 µM [inhibitor, partial curve, poor fit].

Which Potency does the source give for CC(=O)c1ccc(NC(=O)CCOc2ccccc2)cc1 here?
Its Potency is inconclusive: 30.1 µM [inhibitor, partial curve].

How did the Potency turn out when Cc1ccc(-c2nn3c(C)nnc3s2)cc1NC(=O)c1ccc(-c2cccc(Cl)c2)o1 was run?
The Potency was inconclusive: 21.3 µM [inhibitor, partial curve, poor fit].

With COc1cccc(/C(O)=C/c2nc3ccc(C(=O)NCCc4ccc(Cl)cc4)cc3[nH]c2=O)c1 as the compound, how does the Potency read?
The Potency was inconclusive: 21.3 µM [inhibitor, partial curve, poor fit].

With O=c1cc(/N=C/c2coc3c(ccc4ccccc43)c2=O)[nH]c(=S)[nH]1 as the compound, how does the Potency read?
Its Potency is inconclusive: 37.9 µM [inhibitor, partial curve, poor fit].

How did the Potency turn out when Cc1ccc(NC(=O)Cn2c(/C=C/c3ccccc3)nc3ccccc32)cc1C was run?
The Potency was inconclusive: 0.675 µM [inhibitor, partial curve, poor fit].

Which Potency does the source give for O=C(O)c1cccc(N/N=C/c2cccs2)c1 here?
Its Potency is active: 0.426 µM.

With COc1ccc(OC)c(S(=O)(=O)NCCc2csc(-c3cccc(F)c3)n2)c1 as the compound, how does the Potency read?
Its Potency is inconclusive: 8.49 µM [inhibitor, partial curve, poor fit].

For CN(Cc1ccccc1)C(=O)CCC(=O)N(C)Cc1ccccc1, which Potency is on record?
Its Potency is inconclusive: 26.9 µM [inhibitor, single point].

COc1ccc(Nc2nccc(-c3cccc(N)c3)n2)cc1 was tested. Which Potency did it give?
The Potency was active: 2.69 µM.

With CCCc1ccc2oc(C(=O)N3CCN(c4cnccn4)CC3)c(C)c2c1 as the compound, how does the Potency read?
The Potency was inconclusive: 19 µM [inhibitor, partial curve, poor fit].

CCOC(=O)Cc1csc(NC(=O)/C=C/c2ccc(Cl)cc2)n1 was tested. Which Potency did it give?
The Potency was active: 2.39 µM.

Which “activity change, negative = inhibition” value does the source give for Cc1ccc(N(C)C(=O)c2cc(S(=O)(=O)N3CCOCC3)cn2C)cc1 here?
The value was inactive: -2.96%.

How did the “activity change, negative = inhibition” value turn out when COC(=O)CC1=NN(c2ccccc2)C(=O)C1 was run?
Its value is inactive: 1.6%.

How did the Potency turn out when COc1ccccc1CN1C(=O)C2CC=CCC2C1=O (stereo unspecified) was run?
The Potency was inconclusive: 30.1 µM [inhibitor, single point].

CC(C)c1ccc2c(c1)C(c1ccc(N3CCOCC3)cc1)=NNC(c1cccs1)=N2 was tested. Which Potency did it give?
The Potency was inconclusive: 37.9 µM [inhibitor, partial curve, poor fit].

With COc1ccc(-c2cc(-c3ccccc3)nc(N3CCCC3)n2)cc1OC as the compound, how does the Potency read?
Its Potency is inconclusive: 30.1 µM [inhibitor, partial curve, poor fit].

How did the Potency turn out when CCOc1ccc(NC(=S)Nc2cc(C)[nH]n2)cc1 was run?
Its Potency is inconclusive: 26.9 µM [inhibitor, single point].

For O=C(c1cccc2ccccc12)C1CCCN(C(=O)c2ccc(N3CCOCC3)cc2)C1 (stereo unspecified), which Potency is on record?
The Potency was inconclusive: 23.9 µM [inhibitor, partial curve, poor fit].

CCCc1nc2ccccc2c(C(=O)OCC(=O)Nc2ccc(S(=O)(=O)N3CCOCC3)cc2)c1CC was tested. Which “activity change, negative = inhibition” value did it give?
Its value is inactive: 2.96%.

How did the Potency turn out when COC(=O)c1ccc(CSc2nnc3ccc4ccccc4n23)cc1 was run?
Its Potency is inconclusive: 23.9 µM [inhibitor, partial curve, poor fit].

With Brc1ccc(NCc2cccc3ccccc23)nc1 as the compound, how does the Potency read?
Its Potency is inconclusive: 30.1 µM [inhibitor, partial curve, poor fit].

Which Potency does the source give for C/C(=N\Nc1ccc([N+](=O)[O-])cc1)c1ccc(N)cc1 here?
Its Potency is inconclusive: 37.9 µM [inhibitor, single point].

CCOC(=O)c1c[nH]c2ccc3ccccc3c2c1=O was tested. Which Potency did it give?
Its Potency is inconclusive: 26.9 µM [inhibitor, single point].

How did the Potency turn out when COc1ccc(CCC(=O)Nc2cnc3ccccc3c2)cc1 was run?
Its Potency is inconclusive: 19 µM [inhibitor, partial curve, poor fit].

Which Potency does the source give for O=C(Nc1ccncc1)c1cn(-c2ccccc2)nc1-c1cccs1 here?
Its Potency is inconclusive: 7.57 µM [inhibitor, partial curve, poor fit].

Which Potency does the source give for Cc1cccc(C)c1OCC(=O)Nn1c(COc2ccccc2)nc2ccccc2c1=O here?
The Potency was inconclusive: 23.9 µM [inhibitor, partial curve, poor fit].

How did the Potency turn out when Clc1ccc(Cl)c(-c2ccc(/C=N/c3ncn[nH]3)o2)c1 was run?
The Potency was inconclusive: 37.9 µM [inhibitor, partial curve, poor fit].

Which “activity change, negative = inhibition” value does the source give for CCOC(=O)c1cc(OC(=O)c2ccccc2C)n(-c2ccccc2)n1 here?
The value was inactive: -1.93%.

With CCOc1ccc(NC(=O)c2ccc3[nH]c(=O)c(=O)[nH]c3c2)cc1 as the compound, how does the Potency read?
The Potency was inconclusive: 19 µM [inhibitor, partial curve, poor fit].

For CCCCn1nnc(NC(=O)c2ccc(-c3ccccc3[N+](=O)[O-])o2)n1, which Potency is on record?
Its Potency is inconclusive: 23.9 µM [inhibitor, single point].

Which Potency does the source give for O=C(Cc1cccs1)OCC(=O)c1ccco1 here?
The Potency was inconclusive: 23.9 µM [inhibitor, partial curve, poor fit].

How did the Potency turn out when O=C(c1ccc(Cl)cc1)c1cnc(Nc2ccccc2Cl)s1 was run?
The Potency was active: 1.51 µM.

Which Potency does the source give for COCCN(Cc1nc(-c2ccc(C(F)(F)F)cc2)no1)C(C)C here?
Its Potency is inconclusive: 37.9 µM [inhibitor, partial curve, poor fit].

For COCCCNC(=O)C1CCN(c2nc3ccc(C)cc3[nH]2)CC1, which “activity change, negative = inhibition” value is on record?
The value was inactive: 0.906%.

How did the Potency turn out when O=C(O)c1ccc(-c2nnc(-c3ccccc3)o2)cc1 was run?
The Potency was active: 5.36 µM.

For CC(=O)c1cnc(-c2ccccc2Cl)s1, which Potency is on record?
Its Potency is inconclusive: 26.9 µM [inhibitor, partial curve, poor fit].

How did the Potency turn out when COc1cc2c(cc1NC(=S)Nc1cccc3ccccc13)oc1ccccc12 was run?
Its Potency is inconclusive: 26.9 µM [inhibitor, partial curve, poor fit].

For CC(=O)Nc1ccc(N=Cc2ccc(OCc3ccccc3)cc2)cc1, which Potency is on record?
Its Potency is active: 23.9 µM.

With c1ccc2c(c1)OCC(c1nnc3sc(-c4ccc5c(c4)OCO5)nn13)O2 (stereo unspecified) as the compound, how does the Potency read?
The Potency was inconclusive: 21.3 µM [inhibitor, single point].
